# From the supplement of paper PMC4967469
# Lines with a small IC50 respond at low doses; a limit (>, <) means that the fit lies beyond the doses tested. AUC sums up the same curve from the lowest dose to the 256-fold higher top dose; it is 1 without any effect and falls as sensitivity rises. For part of these data: Where the top dose is marked as inferred, it comes from the curve model; the source does not state it. For part of these data: Drugs with an entry number were screened twice under separate entries, and the two screens often disagree.
# Legend:
# Test in all cases: Viability of human cancer cell lines after 72 h of drug (GDSC screen)
# [1] = compound: CC(=O)c1c(C)c2cnc(Nc3ccc(N4CCNCC4)cn3)nc2n(C2CCCC2)c1=O [PD-0332991]
# Description: (§1)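 Human cancer cell lines in 384-well plates, medium with 10% serum, drug for 72 h over a 256-fold dose range (nine 2-fold or five 4-fold steps up to the top dose). Adherent lines were fixed and stained with the nucleic acid dye Syto60, suspension lines read with resazurin; signal relative to control wells, capped at 0 and 100%. One two-parameter sigmoid per drug and line, fitted in a mixed model over all curves with the slope shared within a line.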
# [2] = compound: COc1cc2c(Nc3ccc(NC(=O)c4ccccc4)cc3)ncnc2cc1OCCCN1CCOCC1 [ZM-447439]; details: top dose inferred
# Description: as §1
# [3] = compound: Cn1cnc2c(F)c(Nc3ccc(Br)cc3Cl)c(C(=O)NOCCO)cc21 [AZD6244]; details: screen: GDSC drug entry 1062
# Description: as §1
Cell Line,AUC [1],IC50 [1] [µM],AUC [2],IC50 [2] [µM],AUC [3],IC50 [3] [µM]
"KU-19-19 (bladder, adherent, top dose 4 µM)",0.839,2.73,0.957,> 4,0.767,1.48
"KURAMOCHI (ovary, adherent, top dose 4 µM)",0.979,> 4,0.983,> 4,0.984,> 4
"KY821 (leukaemia, suspension, top dose 4 µM)",0.827,2.04,0.923,> 4,0.492,0.239
"KYAE-1 (oesophagus, suspension, top dose 4 µM)",0.975,> 4,0.912,> 4,0.978,> 4
"KYSE-50 (oesophagus, adherent, top dose 4 µM)",0.928,> 4,0.925,> 4,0.99,> 4
"KYSE-140 (oesophagus, adherent, top dose 4 µM)",0.904,> 4,0.921,> 4,0.984,> 4
"KYSE-150 (oesophagus, adherent, top dose 4 µM)",0.717,0.994,0.885,> 4,0.895,> 4
"KYSE-220 (oesophagus, adherent, top dose 4 µM)",0.93,> 4,0.89,> 4,0.913,> 4
"KYSE-410 (oesophagus, adherent, top dose 4 µM)",0.687,0.869,0.849,3.32,0.95,> 4
"KYSE-450 (oesophagus, adherent, top dose 4 µM)",0.936,> 4,0.942,> 4,0.988,> 4
"KYSE-510 (oesophagus, adherent, top dose 4 µM)",0.913,> 4,0.858,2.44,0.976,> 4
"KYSE-520 (oesophagus, adherent, top dose 4 µM)",0.767,2.01,0.956,> 4,0.932,> 4
"L-428 (Hodgkin lymphoma, suspension, top dose 4 µM)",0.986,> 4,0.992,> 4,0.992,> 4
"L-540 (Hodgkin lymphoma, suspension, top dose 4 µM)",0.95,> 4,0.913,> 4,0.988,> 4
"L-1236 (Hodgkin lymphoma, suspension, top dose 4 µM)",0.992,> 4,0.985,> 4,0.992,> 4
"LAMA-84 (chronic myeloid leukaemia, suspension, top dose 4 µM)",0.53,0.303,0.82,2.35,0.902,> 4
"LAN-6 (neuroblastoma, adherent, top dose 4 µM)",0.793,2.23,0.939,> 4,0.747,1.49
"LB373-MEL-D (melanoma, adherent, top dose 4 µM)",0.974,> 4,0.99,> 4,0.979,> 4
"LB647-SCLC (small cell lung carcinoma, semi-adherent, top dose 4 µM)",0.977,> 4,0.853,3.73,0.984,> 4
"LB771-HNC (head and neck, adherent, top dose 4 µM)",0.945,> 4,0.947,> 4,0.968,> 4
"LB831-BLC (bladder, adherent, top dose 4 µM)",0.987,> 4,0.959,> 4,0.987,> 4
"LB996-RCC (kidney, adherent, top dose 2 µM)",0.943,> 2,0.918,> 2,0.88,> 2
"LB2518-MEL (melanoma, adherent, top dose 4 µM)",0.953,> 4,0.974,> 4,0.385,0.118
"LC4-1 (lymphoblastic leukaemia, suspension, top dose 4 µM)",0.965,> 4,0.942,> 4,0.981,> 4
"LC-2-ad (lung adenocarcinoma, adherent, top dose 2 µM)",0.891,> 2,0.884,> 2,0.975,> 2
"LCLC-97TM1 (large cell lung carcinoma, adherent, top dose 4 µM)",0.778,1.78,0.796,2.09,0.644,0.652
